# According to the supplement of paper PMC8728848:
# The list shows a part of the results.
# B1: Eap (Staphylococcus aureus), A0A7L5PYT7 (protein)
# chain: MKFKSLITTTLALGVLASTGANFNNNEAAAAAKPLDKSSSSLHHGYSKVHVPYAITVNGTSQNILSSLTFNKNQNISYKDLEDRVKSVLKSDRGISDIDLRLSKQAKYTVYFKNGTKKVIDLKAGIYTADLINTSEIKAININVDTKKQVEDKKKDKANYQVPYTITVNGTSQNILSNLTFNKNQNISYKDLEDKVKSVLESNRGITDVDLRLSKQAKYTVNFKNGTKKVIDLKSGIYTANLINSSDIKSININVDTKKHIENKAKRNYQVPYSINLNGTSTNILSNLSFSNKPWTNYKNLTSQIKSVLKHDRGISEQDLKYAKKAYYTVYFKNGGKRILQLNSKNYTANLVHAKDVKRIEITVKTGTKAKADRYVPYTIAVNGTSTPILSDLKFTGDPRVGYKDISKKVKSVLKHDRGIGERELKYAKKATYTVHFKNGTKKVININSNISQLNLLYVQDIKKIDIDVKTGTKAKADSYVPYTIAVNGTSTPILSKLKISNKQLISYKYLNDKVKSVLKSERGISDLDLKFAKQAKYTVYFKNGKKQVVNLKSDIFTPNLFSAKDIKKIDIDVKQYTKSKKNK
# Columns and labels:
# Test in all cases: glycan array binding signal (z-score within array); higher = stronger binding
# Settings in all cases: glycan notation: IUPAC condensed, linker removed
# [1] = molecular target: Fuc(a1-2)[Gal(a1-3)]Gal(b1-4)GlcNAc(b1-2)Man(a1-3)[Fuc(a1-2)[Gal(a1-3)]Gal(b1-4)GlcNAc(b1-2)Man(a1-6)]Man(b1-4)GlcNAc(b1-4)GlcNAc
# Outline: (§1)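 From the Consortium for Functional Glycomics database, 3228 arrays were curated, keeping only those whose protein sequence was available. Binding is given as a within-array Z-score averaged across arrays sharing a protein sequence and across linkers. Negative Z-scores can be read as non-binding.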
# [2] = molecular target: Fuc(a1-2)[Gal(a1-3)]Gal(b1-4)[Fuc(a1-3)]GlcNAc
# Outline: as §1
# [3] = molecular target: Fuc(a1-2)[Gal(a1-4)]Gal(b1-4)GlcNAc
# Outline: as §1
# [4] = molecular target: Fuc(a1-2)[GalNAc(a1-3)]Gal
# Outline: as §1
# [5] = molecular target: Fuc(a1-2)[GalNAc(a1-3)]Gal(b1-3)GlcNAc
# Outline: as §1
# [6] = molecular target: Fuc(a1-2)[GalNAc(a1-3)]Gal(b1-3)GlcNAc(b1-2)Man(a1-3)[Fuc(a1-2)[GalNAc(a1-3)]Gal(b1-3)GlcNAc(b1-2)Man(a1-6)]Man(b1-4)GlcNAc(b1-4)GlcNAc
# Outline: as §1
# [7] = molecular target: Fuc(a1-2)[GalNAc(a1-3)]Gal(b1-4)Glc
# Outline: as §1
# [8] = molecular target: Fuc(a1-2)[GalNAc(a1-3)]Gal(b1-4)GlcNAc
# Outline: as §1
# [9] = molecular target: Fuc(a1-2)[GalNAc(a1-3)]Gal(b1-4)GlcNAc(b1-2)Man(a1-3)[GalNAc(a1-3)[Fuc(a1-2)]Gal(b1-4)GlcNAc(b1-2)Man(a1-6)]Man(b1-4)GlcNAc(b1-4)GlcNAc
# Outline: as §1
# [10] = molecular target: Fuc(a1-2)[GalNAc(a1-3)]Gal(b1-4)GlcNAc(b1-3)Gal(b1-4)GlcNAc
# Outline: as §1
# [11] = molecular target: Fuc(a1-2)[GalNAc(a1-3)]Gal(b1-4)GlcNAc(b1-3)Gal(b1-4)GlcNAc(b1-3)Gal(b1-4)GlcNAc
# Outline: as §1
# [12] = molecular target: Fuc(a1-2)[GalNAc(a1-3)]Gal(b1-4)[Fuc(a1-3)]GlcNAc
# Outline: as §1
# [13] = molecular target: Fuc(a1-2)[GalNAc(a1-4)]Gal(b1-4)GlcNAc
# Outline: as §1
# [14] = molecular target: Fuc(a1-2)[GalNAc(b1-3)]Gal
# Outline: as §1
# Fuc(a1-3)GlcNAc = molecular target: Fuc(a1-3)GlcNAc
# Outline: as §1
# [15] = molecular target: Fuc(a1-3)[Gal(b1-4)]Glc6S
# Outline: as §1
# [16] = molecular target: Fuc(a1-3)[Gal(b1-4)]GlcNAc
# Outline: as §1
# [17] = molecular target: Fuc(a1-3)[Gal(b1-4)]GlcNAc(b1-2)Man(a1-3)[Fuc(a1-3)[Gal(b1-4)]GlcNAc(b1-2)Man(a1-6)]Man(b1-4)GlcNAc(b1-4)GlcNAc
# Outline: as §1
# [18] = molecular target: Fuc(a1-3)[Gal(b1-4)]GlcNAc(b1-2)Man(a1-6)[Gal(b1-4)GlcNAc(b1-2)Man(a1-3)]Man(b1-4)GlcNAc(b1-4)GlcNAc
# Outline: as §1
# [19] = molecular target: Fuc(a1-3)[Gal(b1-4)]GlcNAc(b1-3)Gal(b1-3)[Fuc(a1-4)]GlcNAc
# Outline: as §1
# [20] = molecular target: Fuc(a1-3)[Gal(b1-4)]GlcNAc(b1-4)Gal(b1-4)[Fuc(a1-3)]GlcNAc
# Outline: as §1
# [21] = molecular target: Fuc(a1-3)[Gal(b1-4)]GlcNAc(b1-4)Gal(b1-4)[Fuc(a1-3)]GlcNAc(b1-4)Gal(b1-4)[Fuc(a1-3)]GlcNAc
# Outline: as §1
# [22] = molecular target: Fuc(a1-3)[Gal(b1-4)]GlcNAc6S
# Outline: as §1
# [23] = molecular target: Fuc(a1-3)[Gal3S(b1-4)]Glc6S
# Outline: as §1
# [24] = molecular target: Fuc(a1-3)[Gal3S(b1-4)]GlcNAc
# Outline: as §1
# [25] = molecular target: Fuc(a1-3)[Gal3S(b1-4)]GlcNAc6S
# Outline: as §1
# [26] = molecular target: Fuc(a1-3)[GalNAc(b1-4)]GlcNAc
# Outline: as §1
# [27] = molecular target: Fuc(a1-3)[Neu5Ac(a2-3)]Gal(b1-4)GlcNAc(b1-3)GalNAc
# Outline: as §1
# Fuc(a1-4)GlcNAc = molecular target: Fuc(a1-4)GlcNAc
# Outline: as §1
# Fuc(b1-3)GlcNAc = molecular target: Fuc(b1-3)GlcNAc
# Outline: as §1
# Gal(a1-2)Gal = molecular target: Gal(a1-2)Gal
# Outline: as §1
# Gal(a1-3)Gal = molecular target: Gal(a1-3)Gal
# Outline: as §1
# Gal(a1-3)Gal(b1-3)GlcNAc = molecular target: Gal(a1-3)Gal(b1-3)GlcNAc
# Outline: as §1
# Gal(a1-3)Gal(b1-4)Glc = molecular target: Gal(a1-3)Gal(b1-4)Glc
# Outline: as §1
# Gal(a1-3)Gal(b1-4)GlcNAc = molecular target: Gal(a1-3)Gal(b1-4)GlcNAc
# Outline: as §1
# [28] = molecular target: Gal(a1-3)Gal(b1-4)[Fuc(a1-3)]GlcNAc
# Outline: as §1
# [29] = molecular target: Gal(a1-3)Gal(b1-4)[Fuc(a1-3)]GlcNAc(b1-2)Man(a1-3)[Gal(a1-3)Gal(b1-4)[Fuc(a1-3)]GlcNAc(b1-2)Man(a1-6)]Man(b1-4)GlcNAc(b1-4)GlcNAc
# Outline: as §1
# Gal(a1-3)GalNAc = molecular target: Gal(a1-3)GalNAc
# Outline: as §1
# [30] = molecular target: Gal(a1-3)[Gal(a1-4)]Gal(b1-4)GlcNAc
# Outline: as §1
# Gal(a1-4)Gal(b1-4)Glc = molecular target: Gal(a1-4)Gal(b1-4)Glc
# Outline: as §1
# Gal(a1-4)Gal(b1-4)GlcNAc = molecular target: Gal(a1-4)Gal(b1-4)GlcNAc
# Outline: as §1
# [31] = molecular target: Gal(a1-4)Gal(b1-4)GlcNAc(b1-3)Gal(b1-4)Glc
# Outline: as §1
# Gal(a1-4)GlcNAc = molecular target: Gal(a1-4)GlcNAc
# Outline: as §1
# Gal(a1-6)Glc = molecular target: Gal(a1-6)Glc
# Outline: as §1
# Gal(b1-2)Gal = molecular target: Gal(b1-2)Gal
# Outline: as §1
# Gal(b1-3)Gal = molecular target: Gal(b1-3)Gal
# Outline: as §1
# Gal(b1-3)Gal(b1-4)GlcNAc = molecular target: Gal(b1-3)Gal(b1-4)GlcNAc
# Outline: as §1
# [32] = molecular target: Gal(b1-3)Gal(b1-4)GlcNAc(b1-2)Man(a1-3)[Gal(b1-3)Gal(b1-4)GlcNAc(b1-2)Man(a1-6)]Man(b1-4)GlcNAc(b1-4)GlcNAc
# Outline: as §1
# Gal(b1-3)GalNAc = molecular target: Gal(b1-3)GalNAc
# Outline: as §1
# [33] = molecular target: Gal(b1-3)GalNAc(a1-3)[Fuc(a1-2)]Gal(b1-4)Glc
# Outline: as §1
# [34] = molecular target: Gal(b1-3)GalNAc(a1-3)[Fuc(a1-2)]Gal(b1-4)GlcNAc
# Outline: as §1
# [35] = molecular target: Gal(b1-3)GalNAc(b1-3)Gal(a1-4)Gal(b1-4)Glc
# Outline: as §1
# [36] = molecular target: Gal(b1-3)GalNAc(b1-4)Gal(b1-4)Glc
# Outline: as §1
# [37] = molecular target: Gal(b1-3)GalNAc(b1-4)[Neu5Ac(a2-3)]Gal(b1-4)Glc
# Outline: as §1
# Gal(b1-3)GlcNAc = molecular target: Gal(b1-3)GlcNAc
# Outline: as §1
# [38] = molecular target: Gal(b1-3)GlcNAc(b1-2)Man(a1-3)[Gal(b1-3)GlcNAc(b1-2)Man(a1-6)]Man(b1-4)GlcNAc(b1-4)GlcNAc
# Outline: as §1
# [39] = molecular target: Gal(b1-3)GlcNAc(b1-2)Man(a1-3)[Gal(b1-3)GlcNAc(b1-2)Man(a1-6)]Man(b1-4)GlcNAc(b1-4)[Fuc(a1-6)]GlcNAc
# Outline: as §1
# [40] = molecular target: Gal(b1-3)GlcNAc(b1-3)Gal(b1-3)GlcNAc
# Outline: as §1
# [41] = molecular target: Gal(b1-3)GlcNAc(b1-3)Gal(b1-4)Glc
# Outline: as §1
# [42] = molecular target: Gal(b1-3)GlcNAc(b1-3)Gal(b1-4)GlcNAc
# Outline: as §1
binder,measurement,setting,value
B1,glycan array binding signal (z-score),[1],-0.586
same,glycan array binding signal (z-score),[2],0.411
same,glycan array binding signal (z-score),[3],-0.506
same,glycan array binding signal (z-score),[4],-0.319
same,glycan array binding signal (z-score),[5],0.12
same,glycan array binding signal (z-score),[6],-0.274
same,glycan array binding signal (z-score),[7],-0.229
same,glycan array binding signal (z-score),[8],-0.361
same,glycan array binding signal (z-score),[9],-0.447
same,glycan array binding signal (z-score),[10],0.989
same,glycan array binding signal (z-score),[11],3.63
same,glycan array binding signal (z-score),[12],0.471
same,glycan array binding signal (z-score),[13],-0.285
same,glycan array binding signal (z-score),[14],-0.124
same,glycan array binding signal (z-score),Fuc(a1-3)GlcNAc,-0.243
same,glycan array binding signal (z-score),[15],1.41
same,glycan array binding signal (z-score),[16],-0.372
same,glycan array binding signal (z-score),[17],-0.195
same,glycan array binding signal (z-score),[18],-0.535
same,glycan array binding signal (z-score),[19],-0.512
same,glycan array binding signal (z-score),[20],0.091
same,glycan array binding signal (z-score),[21],-0.587
same,glycan array binding signal (z-score),[22],1.35
same,glycan array binding signal (z-score),[23],0.863
same,glycan array binding signal (z-score),[24],0.112
same,glycan array binding signal (z-score),[25],4.89
same,glycan array binding signal (z-score),[26],-0.449
same,glycan array binding signal (z-score),[27],3.33
same,glycan array binding signal (z-score),Fuc(a1-4)GlcNAc,-0.004
same,glycan array binding signal (z-score),Fuc(b1-3)GlcNAc,-0.218
same,glycan array binding signal (z-score),Gal(a1-2)Gal,0.159
same,glycan array binding signal (z-score),Gal(a1-3)Gal,0.658
same,glycan array binding signal (z-score),Gal(a1-3)Gal(b1-3)GlcNAc,-0.194
same,glycan array binding signal (z-score),Gal(a1-3)Gal(b1-4)Glc,0.101
same,glycan array binding signal (z-score),Gal(a1-3)Gal(b1-4)GlcNAc,-0.001
same,glycan array binding signal (z-score),[28],-0.392
same,glycan array binding signal (z-score),[29],-0.414
same,glycan array binding signal (z-score),Gal(a1-3)GalNAc,0.156
same,glycan array binding signal (z-score),[30],-0.767
same,glycan array binding signal (z-score),Gal(a1-4)Gal(b1-4)Glc,-0.577
same,glycan array binding signal (z-score),Gal(a1-4)Gal(b1-4)GlcNAc,0.283
same,glycan array binding signal (z-score),[31],-0.4
same,glycan array binding signal (z-score),Gal(a1-4)GlcNAc,0.1
same,glycan array binding signal (z-score),Gal(a1-6)Glc,0.133
same,glycan array binding signal (z-score),Gal(b1-2)Gal,-0.038
same,glycan array binding signal (z-score),Gal(b1-3)Gal,0.512
same,glycan array binding signal (z-score),Gal(b1-3)Gal(b1-4)GlcNAc,0.18
same,glycan array binding signal (z-score),[32],-0.547
same,glycan array binding signal (z-score),Gal(b1-3)GalNAc,-0.063
same,glycan array binding signal (z-score),[33],-0.374
same,glycan array binding signal (z-score),[34],-0.358
same,glycan array binding signal (z-score),[35],-0.22
same,glycan array binding signal (z-score),[36],-0.183
same,glycan array binding signal (z-score),[37],-0.709
same,glycan array binding signal (z-score),Gal(b1-3)GlcNAc,-0.449
same,glycan array binding signal (z-score),[38],-0.347
same,glycan array binding signal (z-score),[39],-0.453
same,glycan array binding signal (z-score),[40],-0.471
same,glycan array binding signal (z-score),[41],-0.383
same,glycan array binding signal (z-score),[42],-0.525
